This is one part of the list.
T1: UNK ZnF1-6 (called full-length) (human, UniProt Q9C0B0 30-357)
T1 sequence: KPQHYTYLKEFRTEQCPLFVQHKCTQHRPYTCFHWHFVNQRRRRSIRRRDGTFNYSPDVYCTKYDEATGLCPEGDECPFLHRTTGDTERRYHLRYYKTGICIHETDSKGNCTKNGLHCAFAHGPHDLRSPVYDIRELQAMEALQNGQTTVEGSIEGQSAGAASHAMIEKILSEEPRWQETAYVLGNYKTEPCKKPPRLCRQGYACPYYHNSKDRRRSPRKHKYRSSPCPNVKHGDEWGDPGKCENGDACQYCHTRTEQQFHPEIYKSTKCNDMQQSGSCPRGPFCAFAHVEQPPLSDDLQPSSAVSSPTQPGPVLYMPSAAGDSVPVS

B1: chr2:167954955:167954998:-|3pUTR|ENSG00000198648|msi1_unk|FALSE|overlapping (ssRNA)
RNA: GGGAGUUCUACAGUCCGACGAUCGUUGUAUUUAGAAAUUAAUAUACUUAUAAAAUUAAGAUUUAUUAGCCAAACUUGAAUUCUAGUUUUAAAACUGACUGUGAAUUUUAUUUUUCAUAUAUUUAUGCAUUACACACCUUAGCUCAACAGAGGAUUGAGCAUCA
B2: chr15:75657416:75657517:+|3pUTR|ENSG00000173548|msi1|total|mutant (ssRNA)
RNA: GGGAGUUCUACAGUCCGACGAUCCAUGGGUGCCCCUGGGAAAUUCCCCACUCCUCCGAAGUGGGGCACAGCAGGGGUGAGAACCGAGUCAGGAGCCCUCGAGGCCAAGGCCUGGGCUGCCGGUCAGUCAGUGAAGGUCAGGCCCAACAGAGGAUUGAGCAUCA
B3: chr19:34227675:34227687:+|3pUTR|ENSG00000257103|msi1_unk|total|mutant (ssRNA)
RNA: GGGAGUUCUACAGUCCGACGAUCUUAAAACAUGAGCAUUAAAUAUAUUUGGAACCGCAGAAGGUUAAGUAAUUUCUUAUGUACCGUUAAACUAAAGCAGUACUUCAGUGGGACUUAACAAGUAUUUUUUCAUCACUGAAAGGUCAACAGAGGAUUGAGCAUCA
B4: chr17:15565482:15566353:-|three_prime_utr|ENSG00000241322|control|control|control (ssRNA)
RNA: GGGAGUUCUACAGUCCGACGAUCCACCCAAAGAAAAAGUCUUGGAAAAUCCCUAUGUCACCUGACCAAUUCCUCCUGACUGUUAGCGCCCUGCAGCACGCCCGUAAUUCCGGGGAAUUUGCCUAUCCCUGUAGGCCCCAAACACAACAGAGGAUUGAGCAUCA
B5: chr20:4700211:4700532:+|3pUTR|ENSG00000171867|msi1|FALSE|unique (ssRNA)
RNA: GGGAGUUCUACAGUCCGACGAUCUUGCCUGGAUACCUCUGGCUCCUUCAGCAGCUAGAGCUCAGUAUACUAAUGCCCUAUCUUAGUAGAGAUUUCAUAGCUAUUUAGAGAUAUUUUCCAUUUUAAGAAAACCCGACAACAUUUCAACAGAGGAUUGAGCAUCA
B6: ENSG00000070961:be:win_3001|CDS|ENSG00000070961|bound_else_gene|NA|bound_elsewhere_windowed (ssRNA)
RNA: GGGAGUUCUACAGUCCGACGAUCGAAGGAAUCUUUAACAAUGCCAUCUUCUGCACAAUUGUUUUAGGCACUUUUGUGGUACAGAUAAUAAUUGUGCAGUUUGGUGGAAAACCUUUCAGUUGUUCAGAACUUUCAAUAGAACAGCAACAGAGGAUUGAGCAUCA
B7: chr11:61873518:61873813:-|three_prime_utr|ENSG00000221968|control|control|control (ssRNA)
RNA: GGGAGUUCUACAGUCCGACGAUCCCCUCACAUGUGUAUUCAGCAGCCCUAUGGCCUUGGCUCUGGGCCUGAUGGGACAGGGGUAGAGGGAAGGUGAGCAUAGCACAUUUUCCUAGAGCGAGAAUUGGGGGAAAGCUGUUAUUUCAACAGAGGAUUGAGCAUCA
B8: chr11:119024350:119024909:-|three_prime_utr|ENSG00000137700|control|control|control (ssRNA)
RNA: GGGAGUUCUACAGUCCGACGAUCUCCCACGGUGGCCUUCCCCCUGCACGCUCUGCGGGGAGAAAAGGAGGGGCCUGCCUGGCUAGCCCUGAACCUUUCACUUUCCAUUUCUGCGCCUUUUCUGUCACCCGGGUGGCGCUGGAACAACAGAGGAUUGAGCAUCA
B9: chr2:196133582:196137729:-|three_prime_utr|ENSG00000081320|control|control|control (ssRNA)
RNA: GGGAGUUCUACAGUCCGACGAUCUCUGUAAGGUCCUCUGAAGACAAGACUUCUAAAUCCUCCUGUAAUGGAACCUGUGGUGAUAGAGAAGACAAAGAGAAUAUCCCAGAGGAUAGCAGCAUGGUUUCCAAAAGAUUUCGUUUCCAACAGAGGAUUGAGCAUCA
B10: chr6:43287355:43287456:+|3pUTR|ENSG00000146216|unk|total|mutant (ssRNA)
RNA: GGGAGUUCUACAGUCCGACGAUCUAUGACUCCUGGUGCCCAGGCCCUGGGCCUGCUCCUUGCCACCAACCGAACCGUGAAUGCCGGGCCCCCAGCCUCACCUCUGCCCCAGGACCAACAACACCCUGGUUUGGAGCUGGGAGGCAACAGAGGAUUGAGCAUCA
B11: chr3:11557161:11557262:-|3pUTR|ENSG00000144560|msi1|FALSE|unique (ssRNA)
RNA: GGGAGUUCUACAGUCCGACGAUCCCUCUGACUUUAUACUGUUAUUACUGCAUUUAUUAUUUGCUAUAUUAAUAGCUACUAACUAGAAAUUAGAUGAAGCAAGCAUGACAGACACAGCUGUGGAGGUCACAGCUGCUCCUUUUUCAACAGAGGAUUGAGCAUCA
B12: chr8:81702113:81702224:-|3pUTR|ENSG00000104231|unk|total|mutant (ssRNA)
RNA: GGGAGUUCUACAGUCCGACGAUCGUACCGCCUUGCUGUCUGUCUACAUCAUGAUGUAUAAAUUGAUAUAUCUACAUGAAUUACCGAAACUCCGAAGUGAUCUUUAUUCAGUCUUAUAAUUUUUACAUGAAGAAUCUCCGGCCUCAACAGAGGAUUGAGCAUCA
B13: ENSG00000198589:be:win_5051|CDS|ENSG00000198589|bound_else_gene|NA|bound_elsewhere_windowed (ssRNA)
RNA: GGGAGUUCUACAGUCCGACGAUCGCUUGGUUAACAUACCAGCAGAUGGAGUCACAGUGGAUCCUGCCCUUCUGCCACCAGCCUGCCUUGGAGCCCUUGGUGAUCUAUCUGUGGAACAACCCGUGCAGUUCAGAUCUUUUGACACAACAGAGGAUUGAGCAUCA
B14: chr8:18529670:18529771:-|3pUTR|ENSG00000156011|msi1|FALSE|bound_elsewhere (ssRNA)
RNA: GGGAGUUCUACAGUCCGACGAUCUAAAGCCAUGGAGUUUAUAAAGCCAAGUAACCAUUUGAUAUGGAUAAUAAUAUCUACUCUAGAGAGAGUAUAUAUAUGCACAUUGAUUUUUAAUGCUGUUAAGAUACUUUUGUAAAACUGCAACAGAGGAUUGAGCAUCA

biological target: T1, UNK ZnF1-6 (called full-length); test: nsRBNS (natural sequence RNA bind-n-seq); RBNS binding buffer (assumed for nsRBNS): 25 mM Tris pH 7.5, 150 mM KCl, 3 mM MgCl2, 0.01% Triton X-100, 500 ug/ml BSA, 20 U/ml SUPERase-In, 4 C; UNK is unkempt and MSI1 is Musashi-1; names of the RNAs are library labels; protein concentration not given here; high values mean tight binding

Row | Binder | binding signal
1 | B1 | 15.2 enrichment R
2 | B2 | 0.43 enrichment R
3 | B3 | 0.46 enrichment R
4 | B4 | 0.988 enrichment R
5 | B5 | 6.53 enrichment R
6 | B6 | 0.611 enrichment R
7 | B7 | 1.12 enrichment R
8 | B8 | 0.719 enrichment R
9 | B9 | 0.528 enrichment R
10 | B10 | 0.908 enrichment R
11 | B11 | 2.34 enrichment R
12 | B12 | 0.607 enrichment R
13 | B13 | 1.05 enrichment R
14 | B14 | 0.558 enrichment R

From article PMC12136788
